Read counts are not given, so values of variants with three or more changes are uncertain.
B1: LINE1-mini (parent)
chain: GGCAGAGCUCAACACAGCGUGGCAAAGUGGCUGUGGCUAGACUGCC

Variants of: B1
Assay: self-cleavage, relative activity (ratio to wild type); higher = more cleavage; in vitro, sequencing; the parent is a self-cleaving ribozyme

| Variant | self-cleavage |
| --- | --- |
| GCCACAGCUCAACACAGCGUGGCAAAGUGGCUUCGGCUAGACUGCC [G2C G5C G33U U34C] | 0.03 |
| GCCAGAACUCAACCCAGCGUGGCAACGUGGCUGUGACUAGACUGCC [G2C G7A A14C A26C G36A] | 0.32 |
| GCCAGAACUCAACACGGGGUGGCAAAGUGGCUGUGGCUAGACUACC [G2C G7A A16G C18G G44A] | 0.09 |
| GCCAAAGCUCAACACAGCGUGGCAAAGUGUCUGUGGCUAGACUGCC [G2C G5A G30U] | 0 |
| GCCAGAACGCAACACAGCGUGGCACAGUGGCUGUGGCUAGACUGCC [G2C G7A U9G A25C] | 0.03 |
| GCCAGACCUCAACACGGCGUGGCAAAGUGGAAGUGGCUAGACUGCC [G2C G7C A16G C31A U32A] | 0.04 |
| GCCAAAGCUCAAGACAGCGUGGCACAGUGGCUGAGGCUAGACUGCC [G2C G5A C13G A25C U34A] | 0.02 |
| GCCAGAUCUCAACACCGAGAGGUAAUGUGGGUGUGGCUAGACUGCC [G2C G7U A16C C18A U20A C23U A26U C31G] | 0 |
| GCCAGAGCUCAACACAGCGUGGUAAUGUGGCUGUGGCUAGACUGCC [G2C C23U A26U] | 0.15 |
| GCCAGAGCUCAACACAGCAUGGCAAAGUAGCUGUGGCUGGACUGCC [G2C G19A G29A A39G] | 0.02 |
| GCCAGAACUUAACACAGAGUGGCAAAGUGGCUGUGGCUAGACAGCC [G2C G7A C10U C18A U43A] | 0.02 |
| GCCAGAUCUCAACACAGCGUGGCAAGGCGGCUGUGGCUAGACUGCC [G2C G7U A26G U28C] | 0.1 |
| GCCAGAGCUCAACACACCGUGGCCAAGUGGCUGUGGCUAGACUGCC [G2C G17C A24C] | 0.12 |
| GCCAUAGCUCAACACAGCGUGGCAAAAUGGCUGUGGCUAGACUGCC [G2C G5U G27A] | 0.02 |
| GCCAGAGCUCAACACAGCAUGUCAAAGUGGCUGUGGCUAGACUCCC [G2C G19A G22U G44C] | 0.14 |
| GCCAUAGCUCAUCACAGCGUGUCAAUGUGGCUGUGGCUACUCUGCC [G2C G5U A12U G22U A26U G40C A41U] | 0.01 |
| GCCAGAGCUCAACACAGCAUGGCAAGGUGGCUGUGGCUAGACUGCC [G2C G19A A26G] | 0.29 |
| GCCAGAGCUCAACACAGCGUGGCAAAGUGGAUGAGGCUAGACUGCC [G2C C31A U34A] | 0.03 |
| GCCAGAUCUCAACACAGCGUGGCGAAGUGGCUGUGGCUAGACUGCC [G2C G7U A24G] | 0.21 |

| Variant | self-cleavage |
| --- | --- |
| GCCAGAGCUCAACACAUCGUGGCAAAGUGGCUGUGACUUGACUGCU [G2C G17U G36A A39U C46U] | 0.19 |
| GCCAGAGCUCAACACAGCGUGGUAGAGUGGCUGUGGCUAGACUGCC [G2C C23U A25G] | 0.06 |
| GCCAGAGCUCAACACACCGUGGCAAAGCGGCUGUGGCUAGACUGCC [G2C G17C U28C] | 0.12 |
| GCCAAAGCGCCACACAGCGUGGCAAAGUGGCUGUGGCUUGACGGCC [G2C G5A U9G A11C A39U U43G] | 0 |
| GCCAAAGCUCAACACAGCGUGGCAAAGUGGCUGUAGCUAGAGUGCC [G2C G5A G35A C42G] | 0.03 |
| GCCAGACCUCAACACAGCGUGGCACAGUGGCUGUGGCUGGACUGCC [G2C G7C A25C A39G] | 0.16 |
| GCCAGAUCUCGACACAGCGCGGCAAAGUGGCUGUGGCUAGGCUGCA [G2C G7U A11G U20C A41G C46A] | 0.07 |
| GCCAAAGCUCAACACAGCGUGGCAAAGUGGCUGUGGCUAGACUGCA [G2C G5A C46A] | 0.04 |
| GCCAGAGCUCAACACAGCGUGGCAAAGUGGUUAUGGCUAGACUGCC [G2C C31U G33A] | 0.01 |
| GCCAGAGCUCAACACAGCGUGGCAAAGUGGGGGUUGCUAGACUGCC [G2C C31G U32G G35U] | 0.04 |
| GCCAAAGCUCAACACACCUUGGCAAAGUGGCUGUGGCUAGACUGCC [G2C G5A G17C G19U] | 0.02 |
| GCCAGAGCUCAACACAACGUGGCAAUGUGGCUGUGGUUAGACUGAA [G2C G17A A26U C37U C45A C46A] | 0.02 |
| GCCAGAGCUCAACACAGCGUGGUAAAGUGGCUGUAGCUAGACUGCC [G2C C23U G35A] | 0.08 |
| GCCAUAGCUCAACACAGCGUGGCAAAGUGGCGGUGGCUAGACUGCC [G2C G5U U32G] | 0.04 |
| GCCAACGCUCAACACAGCGUGGCAAAGUGGCUGUGGCUAGGCUGCC [G2C G5A A6C A41G] | 0.05 |
| GCCAAAGCUCAACACAGCGUGACAAAUUGGCUGUGGCUAGAGUGCC [G2C G5A G22A G27U C42G] | 0.01 |
| GCCAGAGCUCAACACAGCGUGGCAAAGUGGAUGUGGCUAUACUGCC [G2C C31A G40U] | 0.08 |
| GCCACAGCGCAACACAGCGUGGCAAAGUGGGUGUGGCUAGACUGCC [G2C G5C U9G C31G] | 0.05 |
| GCCAGAGCUCAACACAACGUGGCAAAGUGGAUGUGGCUAGACUCCC [G2C G17A C31A G44C] | 0.02 |

| Variant | self-cleavage |
| --- | --- |
| GCCAGAGCUCAACACAACAUGGCAAAGUGGCUGUGUCUAGACUGCC [G2C G17A G19A G36U] | 0.12 |
| GCCAGAGCUCAACACAGCGUGGCAAAGUGGGUGUGGCUAGACUGUC [G2C C31G C45U] | 0.04 |
| GCCAGAGCUCAACACAGCGUGGUAAAGUGGUUGUGGCUAGACUGCC [G2C C23U C31U] | 0.11 |
| GCCAGAGCUCAACACAUCGUGGCAAAGUGGCUGUGCAUAGACUGGC [G2C G17U G36C C37A C45G] | 0.03 |
| GCCAACGCUCAACACAGCGUGGCAAAGUGGCGGUGGCUAGACUGCC [G2C G5A A6C U32G] | 0.02 |
| GCCAGAGCUCAACACAGCGUGGCAAAGUGGGUGUAGCUAGACUGCC [G2C C31G G35A] | 0.21 |
| GCCAGAGCUCAACACAGCAAGGCAAUGUGACUGUGUCUAGACUGCC [G2C G19A U20A A26U G30A G36U] | 0.24 |
| GCCACAGCUCAACACAGCGUGGCAAAGUGGCUGUGGCUUGACUGCC [G2C G5C A39U] | 0.01 |
| GCCAUAGCUCAACAUAGCGUGGCAAAGUGGUUGUGGCUAGACUGCC [G2C G5U C15U C31U] | 0.04 |
| GCCAGAGCUCAACACAGCGUGGGAGAGUGGCUGUGGCUCGACUGCC [G2C C23G A25G A39C] | 0.02 |
| GCCAGACCUUAACACAGCGUGGCAAAGUUGCUGAGGCUAGACUGCC [G2C G7C C10U G29U U34A] | 0.07 |
| GCCAGACCUCAACACACCCUGGCAAAGUGGCUGUGGCUAGACUGCC [G2C G7C G17C G19C] | 0 |
| GCCAUAGCUCAACACAGCCUGGCAAAGUGGCUUUGGCUAGACUGCA [G2C G5U G19C G33U C46A] | 0.01 |
| GCCAGAGCUCAACACACCGUGGCAAAGUGGCUGUGACUAGACUGCC [G2C G17C G36A] | 0.32 |
| GCCAGACUUCAAAACAUCAUGGCAGAGUGGCUGUGGCUAGACAGCC [G2C G7C C8U C13A G17U G19A A25G U43A] | 0.02 |
| GCCAGAGCUCAACACAGCGUGGCAAAGUGGCUGUGGCUAGAAGGCC [G2C C42A U43G] | 0.01 |
| GCCAAAGCUCAACACAGCGUGGAAAAGUGGCUCUGGCUAGACUGCC [G2C G5A C23A G33C] | 0.09 |
| GCCAGAGCUCAACACACCGUGGCAAAGUGGCUGUGGCUAGAAUGGC [G2C G17C C42A C45G] | 0.05 |

From the RNAGym collection of RNA variant scans (doi:10.7554/elife.90254)
